Measured values reported in PubChem BioAssay AID1159614 (National Center for Advancing Translational Sciences (NCATS), 2016).
Among all 45,000 compounds or so, about 65 (0.1%) were called active. Calls come from the whole dose curve; as a rule, active = well fitted activation curve with a large enough effect; inconclusive = small, poorly fitted or top-dose-only effect; inactive = no such curve, though single readings can be large or run the other way. The list shows a part of the results.

These compounds were tested against Galactocerebrosidase (Homo sapiens) (UniProt P54803) (assay: A Novel Cell-Based Assay to Identify Small Molecules for B -Galactocerebrosidase). Conditions: 145M-Twi-hGALC-G270D cells (Twitcher mouse brain line with human GALC G270D), HMU-beta-Gal fluorescence, 48 h; series mostly up to 57.5 µM; activation: at the top concentration.
Sequence of UniProt P54803 (P54803 whole entry, looked up): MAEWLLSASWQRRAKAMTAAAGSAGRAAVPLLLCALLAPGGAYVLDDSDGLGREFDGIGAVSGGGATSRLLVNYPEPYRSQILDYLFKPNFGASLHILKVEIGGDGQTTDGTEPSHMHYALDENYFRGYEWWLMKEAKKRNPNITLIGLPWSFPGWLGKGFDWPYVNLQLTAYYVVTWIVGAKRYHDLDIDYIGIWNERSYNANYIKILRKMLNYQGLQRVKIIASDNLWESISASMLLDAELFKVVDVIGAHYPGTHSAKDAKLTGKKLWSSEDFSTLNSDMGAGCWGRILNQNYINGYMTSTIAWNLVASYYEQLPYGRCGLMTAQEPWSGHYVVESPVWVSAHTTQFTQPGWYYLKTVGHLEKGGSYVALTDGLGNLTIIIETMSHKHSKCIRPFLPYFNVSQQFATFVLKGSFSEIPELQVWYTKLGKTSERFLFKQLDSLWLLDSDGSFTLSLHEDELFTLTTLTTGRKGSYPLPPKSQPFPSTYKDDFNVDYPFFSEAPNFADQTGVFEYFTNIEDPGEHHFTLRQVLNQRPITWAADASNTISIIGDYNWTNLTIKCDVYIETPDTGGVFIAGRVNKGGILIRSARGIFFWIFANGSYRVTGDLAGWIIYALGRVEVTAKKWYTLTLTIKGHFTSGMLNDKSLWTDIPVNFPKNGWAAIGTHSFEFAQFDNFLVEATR
Outline: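 Fluorescence readout: HMU-β-gal cleavage by mutant GALC (0.1 mM final, citrate/phosphate pH 5.2 with 1 mg/mL taurocholate), stopped with carbonate/bicarbonate plus Triton X-100. Cells: murine Twitcher 145M-Twi expressing human G270D GALC; qHTS for activators.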
Note: 0% is about no effect; nearly all actives have a fitted effect of over 65% in size.

activation, inactive:
Cc1cccc(NC(=O)c2c(Br)sc3c2CCCC3)c1 -9.32%
COc1ccccc1N1CCN(C(=O)CSc2nc(-c3ccc(C(C)C)cc3)no2)CC1 -10.8%
CCCCNC(=O)C1CCN(Cc2nc(-c3ccc(OC)c(OC)c3)oc2C)CC1 -5.79%
O=C(NCCCN1CCN(c2ccccc2)CC1)c1cc2c(s1)-c1ccccc1OC2 -14.6%
CCOC(=O)c1c(C)oc2nc(C)nc(NCCCN3CCN(c4cccc(C)c4)C(C)C3)c12 (centres undefined) -26.9%
CCC1CN(C(=O)Nc2cccc3c2CCCC3)c2cc(C)ccc2O1 (centres undefined) -1.95%
Cc1ccccc1Cc1c(C)nc2nc(SCC(=O)NC(C)c3ccccc3)nn2c1C (centres undefined) -7.81%
O=C(Nc1ccc(S(=O)(=O)N2CCC(c3nc4ccccc4s3)CC2)cc1)c1ccccc1F -7.74%
Cc1cccc(C(=O)Nc2ccc(N3CCC(CCN4CCOCC4)CC3)c(C(=O)O)c2)c1 -29.8%
CCCCCOc1ccc(C(=O)N(Cc2ccccc2)C2CCS(=O)(=O)C2)cc1 (centres undefined) -10.3%
CCOC(=O)c1nc(Nc2cccc(C)c2)c2ccccc2n1 -13.9%
CCOc1ccc(CNC(=O)CCn2cccn2)cc1OC -13.7%
Cc1ccc2nc(/C(C#N)=C/c3ccc(-c4cccc(Cl)c4)o3)[nH]c2c1 2.25%
CCN(C(=O)NCc1noc2ccccc12)c1cc(C)ccc1C -15.3%
CCC(C(=O)NCCc1ccc(Cl)cc1)n1nc(C)c2c(C)n(-c3ccccc3)nc2c1=O (centres undefined) -19.3%
CCN(CCCNC(=O)c1nn(-c2ccc(OC)cc2)c(=O)c2c1c1ccccc1n2C)c1cccc(C)c1 0.593%
COc1ccc(-c2cccc(NS(=O)(=O)c3cc(C)c(Cl)cc3C)c2)nn1 -1.9%
CCCCC12CN3CC(C)(CN(C1)C3c1c(C)[nH]c(=O)[nH]c1=O)C2=O (centres undefined) -26.3%
Cc1cccc(CS(=O)(=O)Cc2ccc(C(=O)NCc3ccc(Cl)cc3)o2)c1 -15.8%
CCOc1ccc(NC(=O)CN2C(=O)C(c3ccccc3)=NC23CCCCCC3)cc1 -11.4%
Cc1cccc(Cn2c(C)c(C)c3cc(C(=O)NCc4ccc(C)o4)ccc32)c1 10.8%
Cc1cc(NC(=O)CN(C)S(=O)(=O)c2ccc3c(c2)CCC(=O)N3)ccc1Br -12.2%
CCOc1ccc(CN2C(=O)c3ccccc3Sc3ccc(C(=O)NCc4ccc(C)cc4)cc32)cc1 -20.3%
Cc1ccc(Nc2nccc(N(C)c3ccc4c(C)n(C)nc4c3)n2)cc1S(N)(=O)=O -5.73%
O=C(CSc1oc(-c2ccco2)nc1S(=O)(=O)c1ccc(Cl)cc1)c1ccccc1 5.29%
COc1cccc(CSc2nc3n(n2)C(c2ccccc2C)C(C(=O)Nc2ccccc2OC)=C(C)N3)c1 (centres undefined) -12.3%
Cc1nc2nc(SCC(=O)NC(C)c3ccccc3)nn2c(C)c1Cc1c(F)cccc1Cl (centres undefined) -16%
CCN(CC)CCNC(=O)c1cc(Br)c(N)cc1OC -3.72%
COCCCn1c(=N)c(C(=O)NC2CCCC2)cc2c(=O)n3ccccc3nc21 -15.2%
Cc1ccc(-c2nc3c4cnn(-c5cc(Cl)ccc5Cl)c4ncn3n2)cc1 2.89%
Cc1ccc(CCNC(=O)CCSCc2ccc(Cl)cc2)cc1 -2.1%
CC(=O)Nc1ccc(NC(=O)CN2C(=O)CN(C)C(=O)c3ccccc32)cc1 -5.82%
CC(C)Cc1nn2c(=O)cc(COC(=O)c3ccccc3NC(=O)c3ccccc3)nc2s1 -4.5%
Cc1ccc(S(=O)(=O)c2nnn3c2nc(Nc2ccc(C(C)C)cc2)c2sccc23)cc1C -8.61%
CCOc1ccc(-n2c(SCc3nc(-c4ccccc4C)no3)nnc2-c2ccccc2)cc1 -4.95%
CN(C)c1ccc(CNc2nc(-c3ccco3)nn2C(=O)c2cccc([N+](=O)[O-])c2)cc1 -15.7%
CCCn1c(=O)c2sccc2n2c(CCCC(=O)NCCOC)nnc12 -6.07%
COc1cccc(CN2C(=O)c3ccccc3C2C(=O)NCCc2ccc(OC)c(OC)c2)c1 (centres undefined) -6.62%
CC(C)CC(=O)Nc1ccc(C(=O)OCc2cc(=O)n3nc(C4CCCCC4)sc3n2)cc1 -16.7%
Cc1nc(N2CCCC2)ncc1C(=O)Nc1ccccc1 -8.16%
COc1ccccc1NC(=O)CSc1ncc2c(n1)-c1cc(Cl)ccc1N(C)S2(=O)=O -18.7%
Cc1cc(O)c(C(c2cccc(Cl)c2)N2CCN(c3ccccc3)CC2)c(=O)n1Cc1ccco1 (centres undefined) -6.49%
CC(=O)N1CCCc2cc(S(=O)(=O)N3CCCC(C(=O)NCc4ccc(Cl)cc4)C3)ccc21 (centres undefined) -24.5%
CN(C)c1ccc(CN(CC2CCCO2)C(=O)COc2ccc(Cl)cc2)cc1 (centres undefined) -3.06%
CCc1ccc(-n2c(C)nc3cc(C(=O)NCCc4ccccc4)ccc32)cc1 -12.4%
COc1ccc(NC(=O)Cn2c(=O)n(-c3ccc(Cl)cc3)c(=O)c3c(C)c(C(=O)N(C)C)sc32)cc1Cl -17%
CC(Sc1ncc(S(=O)(=O)c2ccc(C(C)C)cc2)c(N)n1)C(=O)Nc1ccccc1 (centres undefined) -5.18%
CCOC(=O)c1cc(-c2ccc(F)cc2)n(CCC(=O)Nc2ccccc2OC)c1C -1.5%
COC(=O)c1ccc2nc(C)cc(Nc3ccc(O)cc3)c2c1 -20.2%
Cc1ccc(CSc2nc(=O)c3c(C)cc(C)nc3n2C2CC2)cc1 -5.35%
Cc1ccc2c(c1)c(=O)c1ccccc1n2CCCC(=O)Nc1ccc(F)cc1F -11.1%
O=C(NC1CC(=O)N(c2ccccc2)C1)C1CCCC1 (centres undefined) -19.1%
COc1ccc(Br)c2c1-c1nc(NC(=O)c3ccccc3SC)sc1C2 -4.76%
COCCNC(=O)CSc1nnc(-c2ccc(OC)c(OC)c2)c(-c2ccc(OC)c(OC)c2)n1 -18.3%
CCOc1ccc(N2CC(c3nc4ccccc4n3CCCOc3ccc(OC)cc3)CC2=O)cc1 (centres undefined) -17.5%
COC(=O)c1cc(Cl)c(NC(=O)/C=C/c2ccc(Cl)cc2Cl)cc1OC -7.74%
Cc1cccc(C2NC(=O)c3c(sc4c3CCN(C)C4)N2)c1O (centres undefined) 1.43%
CCOC(=O)c1ccc(NC2=CC(c3ccc(Br)cc3)N(c3ccc(C(=O)OCC)cc3)C2=O)cc1 (centres undefined) 0.337%
Cc1cccc(Oc2nc3c(C)cccn3c(=O)c2/C=C(\C#N)c2nc3ccccc3s2)c1 -18.1%
COc1cccc(Cc2nc3ccccc3nc2SCC(=O)N2CCc3ccccc32)c1 -6.33%
CCOC(=O)c1ccc(NC(=O)C(=O)NCc2ccco2)cc1 -11.7%
Cc1c(C(=O)NCCN(C)C)oc2c1-c1nn(Cc3ccccc3Cl)cc1CC2 -11.4%
CC(Sc1nc(-c2ccccc2)c(C#N)c(=O)[nH]1)C(=O)Nc1ccc(F)cc1 (centres undefined) -12%
CCOC(=O)c1ccc(Nc2nc(C)cc(C)n2)cc1 -9.96%
COc1ccc(N(CC(=O)N2CCN(c3cc(C)ccc3C)CC2)S(=O)(=O)c2c(C)noc2C)cc1 -10.2%
COc1ccccc1-c1c(C)nn2c(N3CCN(c4ccc(Cl)cc4)CC3)cc(C)nc12 -3.07%
CC1=C(C(=O)Nc2ccccc2)C(c2ccc(C(=O)O)cc2)n2nc(SCC(=O)c3ccc(C)cc3)nc2N1 (centres undefined) -13.4%
CC(C)CCn1c(SCc2ccc(F)cc2Cl)nc2ccsc2c1=O -4.9%
Cc1ccc(Cn2c(=O)c3c(nc4n3CCN4c3cc(C)cc(C)c3)n(C)c2=O)cc1 -9.52%
CCN(CC)CCn1c(=N)n(CC(O)COc2ccccc2C)c2ccccc21 (centres undefined) -10.1%
CCc1ccc(-c2[nH]c3c(c2-c2c(-n4cccc4)n(C)c(=O)n(C)c2=O)c(=O)n(C)c(=O)n3C)cc1 -14.9%
CC(C)c1ccc(C2c3c(-c4ccccc4O)n[nH]c3C(=O)N2CCc2ccccc2)cc1 (centres undefined) -40.8%
COc1ccc(-c2c(C)nn3c(N4CCC(C(=O)NCCC(C)C)CC4)cc(C)nc23)cc1OC -9.96%
Cc1ccc(-n2ncc3c(NNC(=O)c4ccccc4C)ncnc32)cc1 -6.44%
COc1ccc(CNC(=O)Cc2c(C)c3c(cc(C)c4c(C)coc43)oc2=O)cc1 -11%
COc1ccc(Cl)cc1NC(=O)CCCn1c(=O)c2cccn2c2cccnc21 -13.3%
CCCN1CCN(CC2=C(C(=O)OCC)C(c3ccc(Cl)cc3)NC(=O)N2)CC1 (centres undefined) -10.4%
C#CC1(O)CC[C@H]2[C@@H]3CCC4=CCCC[C@@H]4[C@H]3CC[C@@]21C (some centres undefined) -10.4%
COCCCNC(=O)c1ccc(NC(=O)N2CCCCc3ccccc32)cc1 -12.4%
COc1ccc(-c2nc(CCNC(=O)c3cc(OC)c(OC)c(OC)c3)cs2)cc1 -20%
COc1ccc(-c2noc(CSc3nnc(-c4ccncc4)n3-c3ccccc3)n2)cc1 -7.18%
Cc1ccccc1-c1noc(CSc2nnc(Cc3ccccc3)n2-c2ccc(F)cc2)n1 -14.8%
CCC(C)n1c(=N)c(S(=O)(=O)c2ccc(C)cc2)cc2c(=O)n3cc(C)ccc3nc21 (centres undefined) -12.8%
CCOC(=O)c1ccccc1NC(=O)N(Cc1ccc(C)cc1)Cc1cccn1-c1nnc(N2CCCC2=O)s1 -32.8%
CCOC(=O)N1CCc2c(sc(NCc3ccc(OC)c(Br)c3)c2C(=O)Nc2cc(OC)ccc2OC)C1 -2.96%
COC(=O)c1c(NC(=O)c2ccc(S(=O)(=O)N3CCCCC3C)cc2)sc2c1CCN(C(C)C)C2 (centres undefined) -23%
COc1cccc(NC(=O)Cn2c(=O)n(CCCC(=O)NCc3ccc4c(c3)OCO4)c(=O)c3ccccc32)c1 -5.73%
Cc1ccc(CNC(=O)c2c(-c3ccccc3F)noc2C)o1 4.49%
CCCCOc1cccc(C(=O)N(Cc2ccc(Cl)cc2)C2CCS(=O)(=O)C2)c1 (centres undefined) -33.6%
Cc1ccc(-c2noc(-c3ccc(NCC4CCCO4)c([N+](=O)[O-])c3)n2)cc1 (centres undefined) -7.97%
COc1ccc(CCNC(=O)CSc2nnc(-c3ccc(C)cc3)c(-c3ccc(C)cc3)n2)cc1OC 4%
CCOc1ccc(C(=O)NCCS(=O)(=O)N2CCN(c3cccc(Cl)c3)CC2)cc1 6.96%
COc1ccccc1NC(=O)N1CC=C(c2c[nH]c3ccccc23)CC1 -12%
Cc1cc(=O)[nH]c2nnc(SCCC(C)C)n12 -22.3%
